The other results are listed elsewhere or left out. The full chains were built here from the parent and the listed change. Values near 0.05 are background.
B1: TEV protease; numbered along this chain (parent)
chain: MGESLFKGPRDYNPISSSICHLTNESDGHTTSLYGIGFGPFIITNKHLFRRNNGTLVVQSLHGVFKVKDTTTLQQHLVDGRDMIIIRMPKDFPPFPQKLKFREPQREERICLVTTNFQTKSMSSMVSDTSCTFPSGDGIFWKHWIQTKDGQCGSPLVSTRDGFIVGIHSASNFTNTNNYFTSVPKNFMELLTNQEAQQWVSGWRLNADSVLWGGHKVFMVKPEEPFQPVKEATQL

Variants of: B1
Test: raw area under fraction-flipped curve 0-4 h after induction (AUC4h, not background-subtracted), DNA-recorder readout of cleavage of the substrate (dimensionless); higher = more cleavage of the substrate by the protease variant
Conditions: temperature: 34 °C; time window: 0-4 h after rhamnose induction
Protocol: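 In vivo DNA recorder in E. coli TOP10(DE3) ΔrhaA at 34 °C. Each TEVp single-site mutant (parent TEVp 0) is paired with a single-site variant of the 7-mer TEVs (canonical ENLYFQ|S). The substrate sits between flexible linkers in a Bxb1-sfGFP-TEVs-SsrA fusion, so cleavage stabilises Bxb1 and speeds flipping of a recombination array, read by NGS. The value is the raw area under the fraction-flipped curve over 0-4 h after rhamnose induction (AUC4h), with ≥20 reads per time point. It is not background-subtracted; inactive controls average about 0.047.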
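Further: Bxb1 expression induced with 0.2% (w/v) L-rhamnose at OD600 near 0.5, cultures sampled hourly, flipped fraction per protease–substrate barcode pair counted by paired-end Illumina sequencing.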

Variant | area with substrate ENLYFQC | area with substrate ENLYFQD | area with substrate ENLYFQF | area with substrate ENLYFQG | area with substrate ENLYFQI | area with substrate ENLYFQK | area with substrate ENLYFQL | area with substrate ENLYFQS | area with substrate ENLYFQT | area with substrate ENLYFQW | area with substrate ENLYFQH | area with substrate ENLYFQA | area with substrate ENLYFQE | area with substrate ENLYFQM | area with substrate ENLYFQN | area with substrate ENLYFQP | area with substrate ENLYFQQ | area with substrate ENLYFQR | area with substrate ENLYFQV | area with substrate ENLYFQY
MGESLFKGPRDYNPISSSICHLTNESDGHTTSAYGIGFGPFIITNKHLFRRNNGTLVVQSLHGVFKVKDTTTLQQHLVDGRDMIIIRMPKDFPPFPQKLKFREPQREERICLVTTNFQTKSMSSMVSDTSCTFPSGDGIFWKHWIQTKDGQCGSPLVSTRDGFIVGIHSASNFTNTNNYFTSVPKNFMELLTNQEAQQWVSGWRLNADSVLWGGHKVFMVKPEEPFQPVKEATQL [L33A] | 0.101 | 0.0667 | 0.0648 | 0.0949 | 0.0668 | 0.0384 | 0.0377 | 0.0934 | 0.073 | 0.0601 | – | – | – | – | – | – | – | – | – | –
MGESLFFGPRDYNPISSSICHLTNESDGHTTSLYGIGFGPFIITNKHLFRRNNGTLVVQSLHGVFKVKDTTTLQQHLVDGRDMIIIRMPKDFPPFPQKLKFREPQREERICLVTTNFQTKSMSSMVSDTSCTFPSGDGIFWKHWIQTKDGQCGSPLVSTRDGFIVGIHSASNFTNTNNYFTSVPKNFMELLTNQEAQQWVSGWRLNADSVLWGGHKVFMVKPEEPFQPVKEATQL [K7F] | 0.142 | – | – | – | 0.0606 | 0.0722 | 0.0719 | 0.111 | – | 0.0579 | 0.0772 | – | – | – | – | – | – | – | – | –
MGESLFKGPRDYNPISSSICHLTNESDGHTTSLYGIGFGPFIITNKHLFRRNNGTLVVQSLHGVFKVKDTTTLQQHLVDGRDMIIIRMPKDFPPFPQKLKFREPQREERICLVTTNFQTKSMSSMVSDTSCTFPSGDGIFWKHWIQTKDGQCGSPLVSTRDGFIVGIHSASNFTNTNNYFTSVPKNFMELLTNQEAQQWVSGWRLNADSVLWGGHKVFMVKPEEPFQPVKSATQL [E231S] | 0.087 | – | – | 0.104 | – | – | – | 0.102 | – | – | – | 0.127 | 0.0556 | 0.0961 | 0.0873 | 0.0651 | 0.0854 | – | – | –
MGESLFKGPRDYNPISSSICHLTNESDGHTTSLYGIGFGPFIITNKHLFRRNNGTLVVQSLHGVFKVKDTTTLQQHLVDGRDMIIIRMPKDFPPFPQKLKFREPQREERICLVTTNFQTKSMSSMVSDTSCTFPSGDGIFWKHWIQTKDGQCGSPLVSTRDGFIVGIHSASNFTNTNNYFTSVPKNFMELLTNQEAQQWVSGWRLNADSVLWGGHKVFMVKPEEPFQPVKYATQL [E231Y] | 0.0862 | – | – | – | 0.0533 | – | – | 0.0814 | 0.0814 | – | 0.0634 | 0.0794 | – | – | 0.0777 | 0.0681 | – | 0.0552 | 0.0603 | –
MVESLFKGPRDYNPISSSICHLTNESDGHTTSLYGIGFGPFIITNKHLFRRNNGTLVVQSLHGVFKVKDTTTLQQHLVDGRDMIIIRMPKDFPPFPQKLKFREPQREERICLVTTNFQTKSMSSMVSDTSCTFPSGDGIFWKHWIQTKDGQCGSPLVSTRDGFIVGIHSASNFTNTNNYFTSVPKNFMELLTNQEAQQWVSGWRLNADSVLWGGHKVFMVKPEEPFQPVKEATQL [G2V] | 0.171 | – | 0.115 | 0.14 | 0.0673 | 0.06 | 0.0786 | 0.141 | – | 0.0587 | – | – | – | 0.118 | 0.0928 | – | 0.0857 | 0.0559 | 0.0481 | –
MGESLFKGPRDYNPISSSICHLTNESHGHTTSLYGIGFGPFIITNKHLFRRNNGTLVVQSLHGVFKVKDTTTLQQHLVDGRDMIIIRMPKDFPPFPQKLKFREPQREERICLVTTNFQTKSMSSMVSDTSCTFPSGDGIFWKHWIQTKDGQCGSPLVSTRDGFIVGIHSASNFTNTNNYFTSVPKNFMELLTNQEAQQWVSGWRLNADSVLWGGHKVFMVKPEEPFQPVKEATQL [D27H] | 0.0694 | – | – | 0.0639 | 0.0667 | – | 0.073 | 0.092 | – | 0.062 | – | – | – | 0.0668 | 0.0775 | 0.0585 | – | – | – | 0.0811
MGESLFKGDRDYNPISSSICHLTNESDGHTTSLYGIGFGPFIITNKHLFRRNNGTLVVQSLHGVFKVKDTTTLQQHLVDGRDMIIIRMPKDFPPFPQKLKFREPQREERICLVTTNFQTKSMSSMVSDTSCTFPSGDGIFWKHWIQTKDGQCGSPLVSTRDGFIVGIHSASNFTNTNNYFTSVPKNFMELLTNQEAQQWVSGWRLNADSVLWGGHKVFMVKPEEPFQPVKEATQL [P9D] | 0.106 | – | – | 0.0785 | – | 0.064 | 0.0588 | 0.0995 | – | – | 0.118 | – | – | 0.0979 | 0.0552 | 0.0358 | – | 0.0495 | – | –
MGESLFKGPRDYNPISSSICHLTNESDGHTTSLYGIGFGPFIITNKHLFRRNNGTLVVQSLHGVFKVKDTTTLQQHLVDGRDMIIIRMPKDFPPFPQKLKFREPQREERICLVTTNFQTKSMSSMVSDTSCTFPSGDGIFWKHWIQTKDGQCGSPLVSTRDGFIVGIHSASNFTNTNNYFTSVPKNFMELLTNQEAQQWVSGWRLNADSVLWGGHKVFMVKPEEPFQPVKEDTQL [A232D] | – | 0.0915 | 0.0737 | – | – | 0.0643 | 0.0572 | 0.116 | 0.0584 | 0.0692 | 0.0836 | 0.106 | – | 0.098 | 0.0783 | 0.053 | 0.0957 | 0.0537 | – | 0.0792
MGESLFKGPRDYNPISSSICHLTNESDGHTTSLYGIGFGPFIITNKHLFRRNNGTLVVQSLHGVFKVKDTTTLQQHLVDGRDMIIIRMPKDFPPFPQKLKFREPQREERICLVTTNFQTKSMSSMVSDTSCTFPSGDGIFWKHWIQTKDGQCGSPLVSTRDGFIVGIHSASNFTNTNNYFTSVPKNFMELLTNQEAQQWVSGWRLNADSVLWGGHKVFMVKPEEPFQPVKEITQL [A232I] | – | – | – | – | – | – | – | 0.0973 | 0.0242 | – | – | 0.102 | – | – | – | – | – | – | 0.0713 | –
MGESLFKGPRDYNPISSSICHLFNESDGHTTSLYGIGFGPFIITNKHLFRRNNGTLVVQSLHGVFKVKDTTTLQQHLVDGRDMIIIRMPKDFPPFPQKLKFREPQREERICLVTTNFQTKSMSSMVSDTSCTFPSGDGIFWKHWIQTKDGQCGSPLVSTRDGFIVGIHSASNFTNTNNYFTSVPKNFMELLTNQEAQQWVSGWRLNADSVLWGGHKVFMVKPEEPFQPVKEATQL [T23F] | 0.087 | – | – | – | 0.046 | 0.0514 | 0.0357 | 0.0909 | – | 0.0707 | 0.0818 | – | – | 0.0818 | 0.0707 | 0.0378 | 0.082 | 0.0776 | 0.0375 | 0.0965
